These results are taken from paper PMC1937012.

Amino acid sequences for entries named in this document (tags omitted). A change or cut given only in a name is not applied to a line headed by its entry.
UniProt P11978: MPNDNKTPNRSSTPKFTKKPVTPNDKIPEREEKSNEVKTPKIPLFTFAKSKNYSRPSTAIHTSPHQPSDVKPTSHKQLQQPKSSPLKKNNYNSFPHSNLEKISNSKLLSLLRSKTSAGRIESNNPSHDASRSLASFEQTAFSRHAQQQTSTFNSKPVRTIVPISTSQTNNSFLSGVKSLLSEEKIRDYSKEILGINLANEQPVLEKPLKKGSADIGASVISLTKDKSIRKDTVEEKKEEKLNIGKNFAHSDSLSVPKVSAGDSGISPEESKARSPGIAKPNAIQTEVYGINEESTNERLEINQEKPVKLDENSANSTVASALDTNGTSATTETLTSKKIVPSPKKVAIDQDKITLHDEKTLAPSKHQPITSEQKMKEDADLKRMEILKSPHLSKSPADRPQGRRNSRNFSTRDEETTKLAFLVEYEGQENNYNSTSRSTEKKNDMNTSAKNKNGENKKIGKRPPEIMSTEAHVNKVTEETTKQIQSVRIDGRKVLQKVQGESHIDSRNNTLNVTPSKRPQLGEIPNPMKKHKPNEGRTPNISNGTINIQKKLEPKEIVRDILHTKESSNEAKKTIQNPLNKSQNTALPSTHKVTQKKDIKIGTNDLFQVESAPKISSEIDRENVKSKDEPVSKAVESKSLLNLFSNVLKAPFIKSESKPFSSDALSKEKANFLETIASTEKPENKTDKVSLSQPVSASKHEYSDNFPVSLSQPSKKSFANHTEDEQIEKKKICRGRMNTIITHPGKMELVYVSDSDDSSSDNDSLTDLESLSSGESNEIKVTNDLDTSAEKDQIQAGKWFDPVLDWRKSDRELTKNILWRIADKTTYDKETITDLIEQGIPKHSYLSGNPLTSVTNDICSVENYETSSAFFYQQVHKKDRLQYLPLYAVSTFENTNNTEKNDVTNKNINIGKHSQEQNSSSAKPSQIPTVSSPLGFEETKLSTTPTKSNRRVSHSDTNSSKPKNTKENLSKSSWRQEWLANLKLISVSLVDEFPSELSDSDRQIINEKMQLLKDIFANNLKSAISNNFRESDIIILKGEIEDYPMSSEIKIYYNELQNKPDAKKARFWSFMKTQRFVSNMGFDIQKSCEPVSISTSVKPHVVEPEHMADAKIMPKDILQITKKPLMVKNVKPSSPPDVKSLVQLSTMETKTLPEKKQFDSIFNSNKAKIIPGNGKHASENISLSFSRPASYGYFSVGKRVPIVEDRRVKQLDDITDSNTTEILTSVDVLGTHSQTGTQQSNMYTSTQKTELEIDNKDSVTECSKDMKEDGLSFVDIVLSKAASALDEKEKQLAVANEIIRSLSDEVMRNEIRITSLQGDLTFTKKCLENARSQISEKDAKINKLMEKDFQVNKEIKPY
UniProt P06700: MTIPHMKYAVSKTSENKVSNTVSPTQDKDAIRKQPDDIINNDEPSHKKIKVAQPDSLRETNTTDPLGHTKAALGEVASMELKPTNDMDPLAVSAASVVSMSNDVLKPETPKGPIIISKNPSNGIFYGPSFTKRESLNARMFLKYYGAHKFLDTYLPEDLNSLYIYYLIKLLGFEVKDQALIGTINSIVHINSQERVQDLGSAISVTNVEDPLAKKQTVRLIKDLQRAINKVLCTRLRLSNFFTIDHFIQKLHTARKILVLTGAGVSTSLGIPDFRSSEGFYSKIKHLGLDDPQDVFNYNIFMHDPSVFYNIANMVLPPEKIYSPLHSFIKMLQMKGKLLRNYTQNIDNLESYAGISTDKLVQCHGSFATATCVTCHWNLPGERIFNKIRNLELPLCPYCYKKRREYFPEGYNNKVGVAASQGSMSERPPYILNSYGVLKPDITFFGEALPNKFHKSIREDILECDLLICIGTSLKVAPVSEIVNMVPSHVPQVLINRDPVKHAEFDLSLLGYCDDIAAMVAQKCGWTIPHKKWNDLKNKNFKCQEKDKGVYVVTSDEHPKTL
UniProt P53685: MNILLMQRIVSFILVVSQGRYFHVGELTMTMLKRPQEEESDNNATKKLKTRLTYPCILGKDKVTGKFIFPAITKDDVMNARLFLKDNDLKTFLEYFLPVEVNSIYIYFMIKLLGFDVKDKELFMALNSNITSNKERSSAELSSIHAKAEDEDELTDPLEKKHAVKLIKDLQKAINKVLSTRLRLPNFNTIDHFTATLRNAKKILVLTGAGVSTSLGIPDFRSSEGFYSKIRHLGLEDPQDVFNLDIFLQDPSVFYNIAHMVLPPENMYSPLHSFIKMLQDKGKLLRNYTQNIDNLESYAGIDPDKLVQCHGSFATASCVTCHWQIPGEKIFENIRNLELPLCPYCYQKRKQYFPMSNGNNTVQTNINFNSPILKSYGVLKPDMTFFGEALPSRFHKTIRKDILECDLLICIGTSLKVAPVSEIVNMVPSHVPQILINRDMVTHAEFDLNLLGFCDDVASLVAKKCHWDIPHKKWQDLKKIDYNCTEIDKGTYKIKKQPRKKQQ

The target in test [1] is Sir4p (S. cerevisiae) (UniProt P11978). Put plainly: co-IP; Sir4p immunoprecipitated with rabbit anti-Sir4p serum and protein A agarose from whole-cell lysates of hst1Δ sir2Δ (LRY333) yeast with plasmids, 4 °C; blot with anti-HA.
Test [2] deals with T1, Sum1p (S. cerevisiae) (UniProt P46676).
T1 sequence: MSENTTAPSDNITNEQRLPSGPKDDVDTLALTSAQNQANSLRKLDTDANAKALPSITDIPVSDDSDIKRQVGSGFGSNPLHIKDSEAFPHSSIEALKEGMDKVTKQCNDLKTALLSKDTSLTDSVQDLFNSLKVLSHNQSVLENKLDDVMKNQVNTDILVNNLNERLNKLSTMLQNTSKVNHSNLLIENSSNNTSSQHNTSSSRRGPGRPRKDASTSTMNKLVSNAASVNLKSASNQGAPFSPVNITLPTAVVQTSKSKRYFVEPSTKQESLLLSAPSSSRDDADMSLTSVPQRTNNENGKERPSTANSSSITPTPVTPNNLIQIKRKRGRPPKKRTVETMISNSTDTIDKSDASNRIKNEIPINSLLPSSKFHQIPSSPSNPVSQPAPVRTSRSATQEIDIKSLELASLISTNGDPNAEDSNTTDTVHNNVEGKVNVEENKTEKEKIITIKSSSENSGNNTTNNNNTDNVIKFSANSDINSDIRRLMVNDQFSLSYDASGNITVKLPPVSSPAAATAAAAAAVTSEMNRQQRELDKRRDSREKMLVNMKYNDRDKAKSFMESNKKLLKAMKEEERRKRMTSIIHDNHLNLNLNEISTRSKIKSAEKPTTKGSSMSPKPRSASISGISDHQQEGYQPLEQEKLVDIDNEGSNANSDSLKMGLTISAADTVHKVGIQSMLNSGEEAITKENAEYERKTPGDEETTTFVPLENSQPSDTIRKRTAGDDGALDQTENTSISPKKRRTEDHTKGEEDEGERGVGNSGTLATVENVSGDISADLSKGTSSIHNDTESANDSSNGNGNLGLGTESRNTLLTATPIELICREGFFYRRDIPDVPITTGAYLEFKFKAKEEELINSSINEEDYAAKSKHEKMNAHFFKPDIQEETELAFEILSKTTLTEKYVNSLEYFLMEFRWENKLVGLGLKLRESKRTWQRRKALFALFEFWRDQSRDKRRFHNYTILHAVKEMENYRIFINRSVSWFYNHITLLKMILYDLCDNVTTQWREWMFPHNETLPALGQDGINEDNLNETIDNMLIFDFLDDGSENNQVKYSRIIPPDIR
Put plainly: co-IP; Sum1p immunoprecipitated with guinea pig anti-Sum1p serum and protein A agarose from yeast whole-cell lysates, 4 °C; blot with anti-HA; strains HST1-HA (LRY558), hst1Δ (LRY198) or hst1Δ sir2Δ (LRY333) with plasmids.

Test [3] addresses T1, Sum1p (S. cerevisiae). Put plainly: condition: only in wild-type yeast, with Hst1p present; co-IP; as a1, but HA-Sir2p (pRO298) in wild-type yeast (W3031-a) with endogenous Hst1p present.
In test [4] the target is T1, Sum1p (S. cerevisiae). Put plainly: co-IP; as a1, but HA-Sir2p (pRO298) in the hst1-N291A strain (LRY1306) with inactive Hst1-N291Ap present.
For test [5], the target named is T1, Sum1p (S. cerevisiae). Put plainly: co-IP; as a1, but HA-Sir2p (pRO298) in wild-type yeast (W3031-a) with endogenous Hst1p present.

No constants are given. Whether binding was seen depends on the method and setting. In cells and extracts the contact can be indirect. Some entries that bind do so weakly or less than the wild type.

As for “HA-Sir2_(1−255)-Hst1_(201−503)p (from UniProt P06700 1-255; P53685 201-503)”, the binding entry in test [1] and in test [2] was “binds” each time.
As to “HA-Sir2p (from UniProt P06700 1-562) (enzyme)”, the binding entry in test [1] is given as “binds”; in test [2], “binds”; in test [3], “no binding”.
With “Hst1-N291Ap (from UniProt P53685 1-503) (enzyme)”, the binding entry in test [4] is listed as “binds”.
“Hst1p (from UniProt P53685 1-503) (enzyme)”: the binding entry in test [5] is “binds”.
Take “Hst1p-HA (from UniProt P53685 1-503) (enzyme)”: the binding result in test [2] is recorded as “binds”.
